Six molecules from publication PMC12136788 can be followed below.

The other results are listed elsewhere or left out.

T1: UNK ZnF1-3 (human, UniProt Q9C0B0 31-174)
T1 sequence: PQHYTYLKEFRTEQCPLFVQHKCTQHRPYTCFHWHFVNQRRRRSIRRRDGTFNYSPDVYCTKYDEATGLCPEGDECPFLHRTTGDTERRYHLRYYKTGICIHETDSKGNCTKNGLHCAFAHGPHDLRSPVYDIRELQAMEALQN

B1: 111595278_111595398_3439_3pUTR_ENSG00000170145_ENST00000304987|human|control|control (ssRNA)
RNA: GGGAGUUCUACAGUCCGACGAUCCAACUUGCAUCAGCAGCUAAGAACUUAGGAUUCAAUGACAAAGCACAGCUUUCCUUUAUUUCCUGUGCAUCUGAUUUCCUGAUGUCUUCUUGAUUUGCCUUGUAGCAAUAUGUGGUUGCUCAACAGAGGAUUGAGCAUCA
B2: 70726784_70726904_1073_CDS_ENSG00000165732_ENST00000354185|human|control|control (ssRNA)
RNA: GGGAGUUCUACAGUCCGACGAUCCAACAUCUGGUCCACUUCAUCCAGGACAACAUGCUUAAGUUUGGUGAGAUCUAGUUUGCCAUUCUGUAUGUGGUCUUUGAUACGACCUGGUGUUCCAACCAGGAUAUCAAUCCCAUUCCUCAACAGAGGAUUGAGCAUCA
B3: chr11:4127340:4127341:+_ENSG00000167325_ENST00000300738|hu_mus|hu_hu_hu_mus_False|58_58 (ssRNA)
RNA: GGGAGUUCUACAGUCCGACGAUCGGCAUAGUCAGGGUGCUUCGUGGUCAAGGUCGCGGCUGUCUCAGCAGCCAGGGUAUCUAGUUCCACUGUGGUGACCCCACUAUAUAGGCCUUGGAUUACUUUCAUGGUGAUCUGAGCAGGCAACAGAGGAUUGAGCAUCA
B4: chr5:128440902:128440903:+_ENSG00000066583_ENST00000173527|hu_mus|hu_hu_hu_mus_True|38_38 (ssRNA)
RNA: GGGAGUUCUACAGUCCGACGAUCUUGAACGGUGCUGCCAAGUCCUUUGGGGUAUUGUUCCGUUAUGAUAACUGGAAUCCCUAAGAUCCGAGCUCCUUGCAACAAUCUCUGUCCCACACUAAUGAUGUCCCCAAAGUAUUUGAUCAACAGAGGAUUGAGCAUCA
B5: chr7:141441981:141441982:+_ENSG00000106028_ENST00000265304|hu_mus|hu_hu_hu_mus_False|18_58 (ssRNA)
RNA: GGGAGUUCUACAGUCCGACGAUCCUCAUGUCUUACAAACUGACGAAAUACCUGUAACACAGGUCUUCGAAACAUGGCUUCUAUUUUUCUUACAACCUAAUCUUUAGGCUUUUCCUACCUGACGAUCAGAAAAGAGAAAAAUGACAACAGAGGAUUGAGCAUCA
B6: 70194340_70194460_2252_CDS_ENSG00000131626_ENST00000253925|human|control|control (ssRNA)
RNA: GGGAGUUCUACAGUCCGACGAUCGCGCCCACUGCCCGGAGGGGAGGAGCUAGCAAGCGAGGAAGCAGGGUAGGGGGGAAUGGAGCUCAUUGAUCUAAAACGACCAAGAUUGUCUAGACUUCCACUGCCAACUCGACUUUCAAUCAACAGAGGAUUGAGCAUCA

The target in this experiment is T1, UNK ZnF1-3. The experiment in a line: nsRBNS (natural sequence RNA bind-n-seq); RBNS binding buffer (assumed for nsRBNS): 25 mM Tris pH 7.5, 150 mM KCl, 3 mM MgCl2, 0.01% Triton X-100, 500 ug/ml BSA, 20 U/ml SUPERase-In, 4 C; UNK is unkempt and MSI1 is Musashi-1; names of the RNAs are library labels; protein concentration not given here; high values mean tight binding.
Take B1: the binding signal is 0.59 enrichment R.

In turn, B2 yielded a binding signal of 0.475 enrichment R.

On to B3, for which the binding signal is 0.991 enrichment R.

For B4, the binding signal was 0.727 enrichment R.

B5 registered a binding signal of 0.609 enrichment R.

Consider B6, for which the binding signal was determined as 1.49 enrichment R.
